Measurements taken from PubChem BioAssay AID1030 (National Center for Advancing Translational Sciences (NCATS), 2008).
The whole screen tested about 220,000 compounds, of which about 16,000 (7.3%) were called active. This list was built around the results that the source calls inconclusive (neither active nor inactive); the mix of calls is not that of the screen. The call rests on the fitted dose curve; in most records, active means well fitted inhibition curve with a large enough effect (not every such curve was filed as active); inconclusive means small, poorly fitted or top-dose-only effect, or another doubt; inactive means no such curve, though single readings can be large or run the other way. Potencies of inconclusive entries are left out as doubtful fits.

Molecular target: Aldehyde dehydrogenase 1A1 (Homo sapiens) (UniProt P00352)
Chain of UniProt P00352 (P00352 whole entry, looked up): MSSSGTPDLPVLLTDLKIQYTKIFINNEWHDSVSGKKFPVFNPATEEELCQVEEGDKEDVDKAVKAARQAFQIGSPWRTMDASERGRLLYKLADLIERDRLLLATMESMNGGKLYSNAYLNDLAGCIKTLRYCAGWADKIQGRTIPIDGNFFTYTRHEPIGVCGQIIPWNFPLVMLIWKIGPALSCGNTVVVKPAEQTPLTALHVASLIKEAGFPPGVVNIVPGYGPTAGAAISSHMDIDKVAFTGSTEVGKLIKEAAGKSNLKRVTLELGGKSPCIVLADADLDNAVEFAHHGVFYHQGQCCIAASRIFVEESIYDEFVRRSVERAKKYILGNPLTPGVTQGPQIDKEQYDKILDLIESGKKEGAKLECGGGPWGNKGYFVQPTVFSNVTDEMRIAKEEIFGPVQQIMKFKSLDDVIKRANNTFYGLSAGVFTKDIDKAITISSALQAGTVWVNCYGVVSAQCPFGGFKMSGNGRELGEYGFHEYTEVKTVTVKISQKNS
Test: qHTS Assay for Inhibitors of Aldehyde Dehydrogenase 1 (ALDH1A1)
Details: Purified ALDH1A1, NADH fluorescence, propionaldehyde substrate; series mostly up to 75.3 µM
Potency means the concentration at half of the fitted maximal effect; tags describe the fitted curve by direction and shape.

| SMILES | Potency |
| --- | --- |
| O=S(=O)(Nc1ccccc1N1CCCCC1)c1ccc(F)cc1F | inactive |
| Cc1nc2ccccn2c1/C(O)=C1\C(=O)C(=O)N(CCCn2ccnc2)C1c1ccncc1 (configuration not stated) | inactive |
| CCCCn1c(C)cc(C)c(S(=O)(=O)c2ccccc2C)c1=O | inconclusive [inhibitor, single point] |
| O=C(CN1CCCCC1)Nc1ccccc1NC(=O)CN1CCCCC1 | inactive |
| CCN(CC)S(=O)(=O)c1ccc2oc(C(=O)N3CCc4ccccc4C3)c(C)c2c1 | inconclusive [inhibitor, single point] |
| CC(C)N(C(=O)CN1C(=O)C(=O)c2ccccc21)c1ccccc1 | active: 0.0282 µM |
| Cc1ccc(S(=O)(=O)n2nccc2-c2c(-c3ccccc3)noc2C)cc1 | inconclusive [inhibitor, partial curve] |
| COc1ccc(NC(=O)c2cn(CCC#N)nc2-c2cc3ccccc3o2)cc1 | inconclusive [inhibitor, partial curve] |
| Cc1ccc(NC(=S)c2nc3ccccc3s2)cc1 | inactive |
| CC1(C)CC(=O)C2=C(C1)OC(N)=C(C#N)C2c1ccsc1 (configuration not stated) | active: 25.1 µM |
| CC1=NN(c2ccc(N)cc2)C(=O)C1 | inconclusive [inhibitor, full curve] |
| CCCC(=O)NC(=S)Nc1cccc2c(O)cccc12 | inconclusive [inhibitor, single point] |
| CC(=O)OCC1(C)CN(c2ccccc2)N(C(=O)c2ccc(C(C)(C)C)cc2)C1=O (configuration not stated) | inconclusive [inhibitor, single point] |
| Cc1ccc(C(=O)OCC(=O)Nc2cccc(S(=O)(=O)NC3=NCCCCC3)c2)c(C)c1 | inactive |
| CCOc1cc(N2CCOCC2)c(OCC)cc1NC(=O)C1CCCC1 | inactive |
| O=S(=O)(c1cccc(NC(=S)Nc2ccc(Br)cc2Cl)c1)N1CCOCC1 | inconclusive [inhibitor, single point] |
| CCOc1ccc2nc(NC(=O)CN3CCC(n4nnc5cc(C(F)(F)F)ccc54)CC3)sc2c1 | inactive |
| NNC(=O)/C(=N/Nc1ccccc1)S(=O)(=O)c1ccc(Cl)cc1 | active: 12.6 µM |
| CCCC(c1nnnn1CC(=O)OCC)N(Cc1cc2c(C)cc(C)cc2[nH]c1=O)C1CCCC1 (configuration not stated) | active: 8.91 µM |
| CCN1C(=O)Cc2cc(S(=O)(=O)N3CCOCC3)ccc21 | inconclusive [inhibitor, single point] |
| Cc1ccccc1C1C(C#N)=C2N=C(N)c3c(sc4c3CCCCC4)N2C2=C1C(=O)CCC2 (configuration not stated) | active: 2.24 µM |
| Cc1nn2c(-c3cccc(NC(=O)c4ccco4)c3)nnc2c2ccccc12 | inactive |
| CC1(C)CC(=O)C(C(c2ccccc2F)C2C(=O)CC(C)(C)CC2=O)C(=O)C1 | inconclusive [inhibitor, single point] |
| COc1ccc2cc3cc(C(=O)NCCN4CCc5ccccc5C4)oc3nc2c1 | inconclusive [inhibitor, partial curve] |

| SMILES | Potency |
| --- | --- |
| O=C(c1cccs1)[C@@H]1[C@@H]2C(=O)N(Cc3ccc4c(c3)OCO4)C(=O)[C@@H]2C2c3ccccc3C=CN21 (some centres not stated) | active: 14.1 µM |
| O=C(Nc1nsc(-c2ccccc2)n1)c1cccs1 | inconclusive [inhibitor, partial curve] |
| CCOC(=O)N1CCN(C(=O)c2ccc3c(=O)n(CCOC)c(=O)[nH]c3c2)CC1 | inconclusive [inhibitor, partial curve] |
| CCOCCCNCC(=O)Nc1ccc(OC(F)(F)F)cc1 | inconclusive [inhibitor, single point] |
| COc1ccc([N+](=O)[O-])cc1/C=N/NC(=O)Cc1ccccc1 | inconclusive [inhibitor, single point] |
| Clc1ccccc1-c1nc(N/N=C/c2cccnc2)c2ccccc2n1 | inconclusive [inhibitor, single point] |
| CCCCn1nc2cc(C(=O)NCc3ccco3)ccc2c1OCC | inconclusive [inhibitor, single point] |
| Cc1ccc(-n2nc3c([n+]2[O-])CCc2c-3no[n+]2[O-])cc1 | inconclusive [inhibitor, partial curve] |
| CCCC(=O)NC(c1ccco1)c1c(O)ccc2ccccc12 (configuration not stated) | inconclusive [inhibitor, single point] |
| CCOC(=O)c1cccc(Nc2nc(-c3cccnc3)nc3ccccc23)c1 | inconclusive [inhibitor, partial curve] |
| CN1CCN(c2ncc3nc(-c4cc(F)cc(F)c4)c(=O)n(CCC#N)c3n2)CC1 | inconclusive [inhibitor, partial curve] |
| Cc1ccc(Nc2nc(C)cc(C)n2)c(Br)c1 | inactive |
| CCCC1=C/C(=C/c2ccc(-c3ccccc3OC)o2)C(=O)O1 | inconclusive [inhibitor, partial curve] |
| O=C(CCl)Nc1ccccc1Sc1ccccc1 | active: 3.98 µM |
| N#C/C(=C/N1CCOCC1)c1ccccc1 | inconclusive [inhibitor, single point] |
| Cc1ccccc1NC(=O)C(=O)c1cn(C)c2ccccc12 | inactive |
| C[C@@H](CC(=O)O)[C@@H](N)C(=O)O | inactive |
| O=C(NCc1ccccn1)c1cc2n(n1)C(C(F)(F)F)CC(c1ccco1)N2 (configuration not stated) | inconclusive [inhibitor, single point] |
| CNc1nnc(-c2ccc(OC)cc2)s1 | inconclusive [inhibitor, single point] |
| Cc1cc(C(=O)CSc2nc(N)cc(N)n2)c(C)n1C1CC1 | inconclusive [inhibitor, single point] |
| Brc1cccc(OCCn2ccnc2)c1 | inconclusive [inhibitor, single point] |
| CCn1nnc2sc3c(c2c1=O)CCC(C)C3 (configuration not stated) | inconclusive [inhibitor, partial curve] |
| CCn1c(SCc2ccccc2)nc2c(c1=O)SCC2 | inconclusive [inhibitor, single point] |
